This note sets out measurements from PubChem BioAssay AID463173 (ICCB-Longwood Screening Facility, Harvard Medical School, 2010).

Hit rate of the full screen: of about 52,000 compounds, about 4,300 (8.3%) were called active. Rule as the data show it: active = survival mostly below about 52% (no sharp cut-off); inactive = mostly above about 56%. The list shows a part of the results.

The test system of this experiment is DeltatarO mutant. Nature of the experiment: growth inhibition of S. aureus wild type versus tarO mutant, primary screen, teichoic acid synthesis inhibitors, RN4220, OD600 (AID 463173). The following applies: OD600, 18 h, stronger effect = lower value, screened at 18.75 µg/mL (by protocol).
With `CCC(=O)Nc1ccccc1-c1nc2ccccc2n(Cc2cccc(Br)c2)c1=O`, the survival was inactive: 49%.

Turning to `COc1ccc(CN2CCCN(CC(=O)Nc3cc(C)ccc3C)S2(=O)=O)cc1`, the survival is inactive: 95%.

On to `CCOC(=O)c1sc(N2C(=O)c3oc4cc(C)c(C)cc4c(=O)c3C2c2ccc(C)cc2)nc1C` (configuration not stated), for which the survival is inactive: 195%.

On to `O=C(Nc1ccccc1Cl)c1ccc(F)c(S(=O)(=O)NCc2ccc(Cl)c(Cl)c2)c1`, for which the survival is inactive: 84%.

With `C=CCN(CC=C)C(=O)C1CCN(S(=O)(=O)c2ccc(-n3cnnn3)cc2)CC1`, the survival is inactive: 89%.

Take `CC(=O)Nc1ccc(NC(=O)CCc2c(C)nc3c(c(C)nn3-c3ccc(C)cc3)c2C)cc1`: the survival is inactive: 114%.

On to `CCN(CC)S(=O)(=O)c1nnc(NC(=O)COc2ccc(C)cc2)s1`, for which the survival was inactive: 88%.

With `CC(=O)Nc1ccccc1-c1nc2ccccc2n(C(C)C(=O)Nc2cc(Cl)ccc2C)c1=O` (configuration not stated), the survival is inactive: 82%.

As to `Cc1ccc(C)c(NC(=O)CSc2nnc(CNC(=O)c3ccccc3)n2-c2ccccc2)c1`, the survival was inactive: 67%.

As for `CCCn1c(SCC(=O)c2ccccc2)nnc1C(C)C`, the survival is inactive: 108%.

As for `CCOc1ccc(NC(=O)c2ccc(CN3C(=O)C(C)=C(c4ccc(C)cc4)S3(=O)=O)cc2)cc1`, the survival was inactive: 91%.

Turning to `CC1CCN(C(c2nnnn2Cc2ccccc2)C(C)C)CC1` (configuration not stated), the survival was inactive: 98%.

`Cc1csc2nc(COC(=O)c3ccc(F)cc3)cc(=O)n12`: the survival is inactive: 72%.

Turning to `CCc1ccc2oc(C(=O)NCC(c3ccc(Cl)cc3)N3CCOCC3)c(C)c2c1` (configuration not stated), the survival was inactive: 72%.

Regarding `CC(=O)N1CCCc2cc(S(=O)(=O)N(CCN(C)C)Cc3ccccc3)ccc21`, the survival is inactive: 102%.

As to `CC1Cc2ccccc2N1C(=O)C1CCN(S(=O)(=O)Cc2ccccc2)CC1` (configuration not stated), the survival is inactive: 66%.

In the case of `Cc1ccc(-n2ncc3c(N4CCCCC4)ncnc32)cc1Cl`, the survival is inactive: 72%.

In the case of `CCc1cccc(C)c1NC(=O)c1cc(S(=O)(=O)N(C)Cc2ccccc2)ccc1F`, the survival was inactive: 123%.

For `COc1ccc(-c2cc(OC(=O)c3ccccc3C)c3c(C)oc(C)c3c(=O)c2)cc1`, the survival is inactive: 60%.

Turning to `O=C1c2cccnc2C(=O)N1c1ccc(-c2nc3cc(Cl)ccc3o2)cc1`, the survival was inactive: 85%.

On to `COc1ccccc1-c1cc(C(=O)N2CCN(c3ccccc3)CC2)no1`, for which the survival was active: -15%.

With `Cc1cc(C)c2c(=O)cc(C(=O)Nc3ccc(C)c(Cl)c3)oc2c1`, the survival is inactive: 94%.

Consider `Cc1ccc2[nH]cc(NC(=O)NCc3ccco3)c(=O)c2c1`, for which the survival is inactive: 98%.

On to `CCc1ccc(C2=CC(c3cccc(C)c3)n3c(nc4ccccc43)N2)cc1` (configuration not stated), for which the survival was inactive: 80%.

Take `Cc1cc(C)cc(-n2nnnc2SCC(=O)Nc2cccc(NC(=O)c3ccco3)c2)c1`: the survival is inactive: 67%.

Turning to `COc1ccc(CNC(=O)CSCc2nc(-c3ccccc3F)oc2C)cc1`, the survival was inactive: 67%.

Regarding `Cc1cc(C)nc(NS(=O)(=O)c2ccc(NC(=S)NC(=O)/C=C/c3ccco3)cc2)n1`, the survival was inactive: 91%.

In the case of `O=C(Nc1ccc(OCc2cc(=O)n3ccsc3n2)cc1)c1ccc(F)cc1`, the survival is inactive: 101%.

As to `Cc1nnc(N2CCC(C(=O)NCCc3ccccc3)CC2)c2nn(-c3ccccc3)c(C)c12`, the survival is inactive: 74%.

`O=C(Nc1ccc2c(c1)OCO2)c1cc(-c2cccc(Cl)c2)on1`: the survival is inactive: 64%.

As for `CSc1ccc(/C=C(\C#N)C(=O)NC2CCCCC2)cc1`, the survival was inactive: 96%.

For `CCC(=O)N1c2ccccc2CC1C(=O)NCCc1ccc(SC)cc1` (configuration not stated), the survival was inactive: 90%.

With `COCCn1c(-c2ccccc2)c(C)n2c3c(=O)n(C)c(=O)n(C)c3nc12`, the survival is inactive: 93%.

On to `Cn1nnnc1SCCCNCc1cc(Br)ccc1OCc1ccccc1`, for which the survival was inactive: 70%.

For the compound `Cc1nc2sccn2c(=O)c1S(=O)(=O)Nc1ccc(N2CCN(C)CC2)cc1`, the survival was inactive: 106%.

As for `O=C(O)C1CCCN1c1ncccn1` (configuration not stated), the survival was inactive: 81%.

As to `Cc1oc(-c2ccccc2Cl)nc1CS(=O)CC(=O)N1CCN(c2cccc(C(F)(F)F)c2)CC1` (configuration not stated), the survival was inactive: 131%.

Turning to `O=C(CSc1nnc(-c2ccccc2Br)n1-c1ccccc1)c1ccc(F)cc1`, the survival was active: 17%.

For the compound `Cc1nc2ccn(Cc3cccnc3)c(=O)c2cc1C(=O)NCc1ccccc1`, the survival was inactive: 72%.

For `O=C(NC1CCCC1)c1ccc(CSc2nc3cccnc3n2Cc2cccc(F)c2)cc1`, the survival was inactive: 92%.

As for `CC(C)(C)C1CCc2nc(NC(=O)c3cccc(Cl)c3)sc2C1` (configuration not stated), the survival was active: 3%.

For the compound `COC(=O)c1ccc(OCC2c3cc(OC)c(OC)cc3CCN2C(=O)c2ccc(OC)cc2)cc1` (configuration not stated), the survival was inactive: 83%.

With `O=c1[nH]c(SCc2ccccc2)nc2c1CCCC2`, the survival is inactive: 57%.

As for `COc1cc(OC)c(NC(=O)NCCn2nnc3cc(S(=O)(=O)N(C)C)ccc32)cc1Cl`, the survival is inactive: 88%.

Take `NC(=O)c1cccc(S(=O)(=O)N2CCOCC2)c1`: the survival was inactive: 88%.

Consider `COc1ccc(-c2nn3c(=O)cc(CN4CCN(C(=O)Nc5cc(C)ccc5C)CC4)nc3s2)cc1`, for which the survival was inactive: 99%.

As for `CCOc1ccc(CCNC(=O)C(CC)n2nc(C)c3c(C)n(-c4ccccc4)nc3c2=O)cc1` (configuration not stated), the survival was inactive: 69%.

`Cc1cccc(N2CCN(C(=O)c3sc4nc5n(c(=O)c4c3C)CCC5)CC2C)c1` (configuration not stated): the survival was inactive: 83%.

For `CCCCSCCCNC(=O)C1CCN(Cc2nc(-c3ccc(CC)cc3)oc2C)CC1`, the survival was active: 46%.

Turning to `COc1ccc(-c2c(C#N)c(SCC(=O)Nc3ccc(C)c(C)c3)nc(C)c2C(=O)Nc2ccc(Cl)cc2)cc1`, the survival was inactive: 92%.

In the case of `CCOC(=O)c1c(C)[nH]c(C)c1S(=O)(=O)N1CCC(C(=O)NCc2ccc(F)cc2)CC1`, the survival is active: 6%.

As to `Cc1cc(-c2ccc(S(=O)(=O)Nc3cccc(C)c3C)s2)on1`, the survival was inactive: 130%.

Take `CCOc1ccc(CN2C(=O)c3ccccc3Sc3ccc(C(=O)NCc4ccc5c(c4)OCO5)cc32)cc1`: the survival was inactive: 83%.

As for `Cc1ccccc1NC(=O)Nc1csc2c1CCCC2`, the survival was active: 29%.

With `COc1ccc(C(=O)CSc2nc3cc(C(=O)NC4CCCC4)ccc3c(=O)n2CC2CCCO2)cc1` (configuration not stated), the survival was inactive: 95%.

Take `CC(C)NC(=O)C(F)(F)F`: the survival was inactive: 85%.

On to `COc1ccc(C)cc1NC(=O)C(NS(=O)(=O)c1cccs1)c1ccccc1` (configuration not stated), for which the survival was active: 11%.
